Source: the RNAGym collection of RNA variant scans (doi:10.7554/elife.90254)
The source gives no read counts; variants with many changes may rest on few reads.

B1: LINE1-mini (parent)
chain: GGCAGAGCUCAACACAGCGUGGCAAAGUGGCUGUGGCUAGACUGCC

Variants of: B1
Experiment: self-cleavage, relative activity (ratio to wild type); higher = more cleavage; in vitro, sequencing; the parent is a self-cleaving ribozyme

Variant	self-cleavage
G30C A41G C46A	0.06
G35U C37G C46A	0.02
G35U G36A A39G	0.11
C31U G33A G36C	0.09
G35C A41G C42A	0.04
U34A A39U C46G	0.04
U34A A39U C46U	0.03
U34C C42U G44C	0.03
G30C G33A C42G	0.01
C31A A39C A41U	0.03
U32C G33C C45G	0.01
G30A U32G C42G C46A	0.05
U32C G36A U38A	0.04
G30C G33A G36C	0.05
U32C G40C G44U C46U	0.02
G30U G40U G44U	0.03
U32C G36U C37A	0.27
G33U C37U G40U G44C	0.23
C31U A39U G40U	0.01
U32A G40C C42G	0.11
G30U U32A G33A C46A	0.03

Variant	self-cleavage
G35A C37U C42U	0.02
U32G C37A U38A	0.03
G30U C37A C46A	0.05
C31A C42G G44U	0.08
C31A G40A U43A	0.03
G30U C31U U32G	0.03
C31A G33A C37G	0.02
U32C G33A G44C	0.11
U32G C37U U38A	0.03
G33U G40A C45A	0.04
U34G G35U C45U	0.11
G35U A41G C46A	0.03
U32C A39G G44C	0.12
G30U G35A C45U	0
G35C U38A G40A	0.04
G33C C37G A41C	0.05
C31A G35U C37U U38C	0.02
C31A U32C G44A	0.02
G33C C37U U43G	0
C31U C37G U38A	0.09
C31U G36U C45A	0.03

Variant	self-cleavage
U34G A41U C45U	0.06
C31U G40A G44U	0.02
G33U G35C C37G C46U	0
C31A U32G G33A C46A	0.03
G35C G36U A41G	0.12
U32G A41C G44U C46G	0.04
G30U G33A G35U C37G	0.01
G35A U38G A39C	0
U32G U43C G44A	0.02
U32A C37A C45G	0.02
G30C G40C C46G	0.04
C31G U43G C46G	0.03
C31G C37U U43A G44U	0.09
G33C A41G C46G	0.04
U32G U43A C46G	0.05
C31A U34C C45G	0
G33U G36U C42U	0.04
G33U G36U C42G	0.02
C31U G35U G36C G40A C45U	0.12
U32A G35A G36A	0.08
C31A G33C G35C U38A	0.05

Variant	self-cleavage
G33A C37A C42A	0.04
G30C G35C C42G	0.15
G33A G36A G40C	0.1
C31U G36U C42U C46U	0.2
G35U C37G C42G U43C C46G	0.05
C31G C37G G44C	0.01
U32C G33C U43A	0.01
U34C C37U C42A	0.02
U34A C42G C46A	0.03
G30C G40C G44U	0.07
U32G U38G C45G	0.05
G33A G40U G44U C45G	0.07
G30C U32A G33U	0.05
G30C G35C G40A	0.09
G35A G36U U43C	0.25
U32G C37A C45U	0.02
G30U G36U G44U	0.3
C31A C37U G40C	0.04
G30C C31A G36U	0.2
G33A A41C C45A	0.04
